In doi:10.1101/2025.01.09.632086 (2025):

Molecular target: T1, HscA (E. coli, UniProt P0A6Z1 1-616)
T1 chain: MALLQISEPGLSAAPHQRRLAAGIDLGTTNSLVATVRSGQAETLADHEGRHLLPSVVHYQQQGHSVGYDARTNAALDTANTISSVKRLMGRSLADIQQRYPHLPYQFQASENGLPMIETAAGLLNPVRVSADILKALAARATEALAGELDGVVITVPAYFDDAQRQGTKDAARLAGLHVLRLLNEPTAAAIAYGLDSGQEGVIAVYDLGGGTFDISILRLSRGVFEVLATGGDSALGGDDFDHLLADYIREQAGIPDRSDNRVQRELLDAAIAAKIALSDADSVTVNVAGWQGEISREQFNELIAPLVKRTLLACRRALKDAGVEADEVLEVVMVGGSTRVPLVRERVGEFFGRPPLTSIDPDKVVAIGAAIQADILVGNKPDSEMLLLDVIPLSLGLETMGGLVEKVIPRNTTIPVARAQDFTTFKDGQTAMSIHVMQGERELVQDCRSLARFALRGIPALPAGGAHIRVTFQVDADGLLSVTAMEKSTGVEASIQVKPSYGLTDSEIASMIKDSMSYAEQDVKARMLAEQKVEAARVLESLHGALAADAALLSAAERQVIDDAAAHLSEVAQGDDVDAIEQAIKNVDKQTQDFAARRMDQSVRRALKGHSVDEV
Assay: ITC

B1: IscU WT (natural protein)
chain: MAYSEKVIDHYENPRNVGSFDNNDENVGSGMVGAPACGDVMKLQIKVNDEGIIEDARFKTYGCGSAIASSSLVTEWVKGKSLDEAQAIKNTDIAEELELPPVKIHCSILAEDAIKAAIADYKSKREAK
Kd: 5.4 µM
